Measured values taken from the supplement of paper PMC11876631.
± gives the standard deviation of the averaged measurements. Laboratory Escherichia coli strains with one amino-acid change in an essential protein, pooled on minimal glucose agar with carbenicillin or gentamicin at twice the control MIC (plus kanamycin and chloramphenicol for the plasmids), 48 h. Fold change of barcode share against drug-free plates; higher = less susceptible. Active = above 20 in both replicates (the paper's putatively resistant). '<' = one read or none on drug, '>' = one read or none on a drug-free plate. Shares are relative, so most strains fall below 1 when a few take over. Listed are strains with at least 15 reads on both drug-free plates, and hits; most hits rest on fewer reference reads. Replicate rank correlation about 0.5. Edits are read from barcodes.

B1: trpA; numbered along this chain (parent)
chain: MERYESLFAQLKERKEGAFVPFVTLGDPGIEQSLKIIDTLIEAGADALELGIPFSDPLADGPTIQNATLRAFAAGVTPAQCFEMLALIRQKHPTIPIGLLMYANLVFNKGIDEFYAQCEKVGVDSVLVADVPVEESAPFRQAALRHNVAPIFICPPNADDDLLRQIASYGRGYTYLLSRAGVTGAENRAALPLNHLVAKLKEYNAAPPLQGFGISAPDQVKAAIDAGAAGAISGSAIVKIIEQHINEPEKMLAALKVFVQPMKAATRS
B2: ilvC; a variant is named by its letters at X, in order (parent)
chain: MANYFNTLNLRQQLAQLGKCRFMGRDEFADGASYLQGKKVVIVGCGAQGLNQGLNMRDSGLDISYALRKEAIAEKRASWRKATENGFKVGTYEELIPQADLXINLTPDKQHSDVVRTVQPLMKDGAALGYSHGFNIVEVGEQIRKDITVXXVAPKCPGTEVREEYKRGFGVPTLIAVHPENDPKGEGMAIAKAWAAATGGHRAGVLESSFXAEVKSDLMGEQTIXCGMLQAGSLLCFDKLVEEGTDPAYAEKLIQFGWETITEALKQGGITLXXDRLSNPAKLRAYALSEQLKEIMAPLFQKHMDDIISGEFSSGMMADWANDDKKLLTWREETGKTAFETAPQYEGKIGEQEYFDKGVLMIAMVKAGVELAFETMVDSGIIEESAYYESLHELPLIANTIARKRLYEMNVVISDTAEYGNYLFSYACVPLLKPFMAELQPGDLGKAIPEGAVDNGQLRDVNEAIRSHAIEQVGKKLRGYMTDMKRIAVAG
B3: aroE; numbered along this chain (parent)
chain: METYAVFGNPIAHSKSPFIHQQFAQQLNIEHPYGRVLAPINDFINTLNAFFSAGGKGANVTVPFKEEAFARADELTERAALAGAVNTLMRLEDGRLLGDNTDGVGLLSDLERLSFIRPGLRILLIGAGGASRGVLLPLLSLDCAVTITNRTVSRAEELAKLFAHTGSIQALSMDELEGHEFDLIINATSSGISGDIPAIPSSLIHPGIYCYDMFYQKGKTPFLAWCEQRGSKRNADGLGMLVAQAAHAFLLWHGVLPDVEPVIKQLQEELSA

Variants of: B1
Test: barcode share on antibiotic plates over drug-free plates; higher = less susceptible
Conditions: with Escherichia coli (laboratory strain); antibiotic: carbenicillin; 2× MIC (3.1 µg/mL)
Method: (§1)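 A pool of E. coli strains, each edited to carry one amino-acid change in an essential protein, was grown for 48 h on minimal glucose agar with or without antibiotic; strain barcodes were sequenced; mean of two replicates.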

Variant | fold change of barcode share
F22W | 0.47 ± 0.038
F22P | 2.29 ± 0.053
F22A | 0.354 ± 0.026
V128A | 0.301 ± 0.089
V23A | 0.228 ± 0.12
L85A | 0.241 ± 0.039
F22Q | 1.72 ± 0.32
F22D | 0.444 ± 0.0095
V128P | 0.219 ± 0.11
V128Q | 0.307 ± 0.093
I241P | 0.556 ± 0.1
V128D | 0.503 ± 0.028
V23D | 0.267 ± 0.16
I241W | 0.529 ± 0.2
V23P | 0.501 ± 0.2
V23Q | 0.29 ± 0.047
L85Q | 0.195 ± 0.028
I241Q | 0.462 ± 0.11

Same assay, conditions: with Escherichia coli (laboratory strain); antibiotic: gentamicin; 2× MIC (MIC 0.45 µg/mL)

Variant | fold change of barcode share
F22W | 0.0215 ± 0.018
F22A | 0.00784 ± 0.0042
V128A | < 0.00658
V23A | 0.017 ± 0.0061
L85A | < 0.0227
F22D | 0.0415 ± 0.019
V128P | < 0.00709
V128Q | < 0.00431
I241P | 0.016 ± 0.004
V128D | < 0.0108
V23D | 0.0112 ± 0.0057
I241W | < 0.0159
V23P | 0.0211 ± 0.02
V23Q | 0.00658 ± 0.0049
L85Q | < 0.0154
I241Q | 0.0373 ± 0.028

Variants of: B2
Test: as above
Conditions: with Escherichia coli (laboratory strain); antibiotic: carbenicillin; 2× MIC (3.1 µg/mL)
Method: as §1

Variant | fold change of barcode share
VVMVLMQ | 0.861 ± 0.17
VAMVLMM | 1.39 ± 0.35
VVMVLMD | > 41.4 [active]
VVWVLMM | 28.6 [active]
VVMVQMM | 0.888 ± 0.12
VVQVLMM | 0.813 ± 0.4
WVMVLMM | 0.556 ± 0.17
VVMVLAM | 0.649 ± 0.2
VVMDLMM | 1.16 ± 0.016
VVMVWMM | > 48.3 [active]
VVMVLMA | 0.693 ± 0.18
VVPVLMM | > 38.4 [active]
VVMWLMM | 0.933 ± 0.27
VVMVLPM | 0.93 ± 0.066
VVAVLMM | 1.15 ± 0.84
VPMVLMM | 1.1 ± 0.25

Variant | fold change of barcode share
VVMVLWM | > 34.4 [active]
VVMVLMM I103P | 0.777 ± 0.2
VVMVLQM | 0.832 ± 0.043
AVMVLMM | 0.544 ± 0.21
VVMALMM | 0.995 ± 0.41
VVMVLMM I103A | 0.581 ± 0.12
VVMVAMM | 0.434 ± 0.1
VQMVLMM | 0.398 ± 0.12
VVMVLMM I103W | 0.495 ± 0.011
VVMQLMM | 1.29 ± 0.061
VVMPLMM | 0.936 ± 0.011
VVMVPMM | 1.11 ± 0.12
VVMVDMM | 0.713 ± 0.048
VVDVLMM | 0.928 ± 0.15
VVMVLMW | 0.799 ± 0.53
VVMVLMM I103Q | 0.407 ± 0.097

Same assay, conditions: with Escherichia coli (laboratory strain); antibiotic: gentamicin; 2× MIC (MIC 0.45 µg/mL)

Variant | fold change of barcode share
VVMVLMQ | 0.00826 ± 0.0059
VAMVLMM | 0.0115 ± 0.0057
VVMVQMM | 0.0409 ± 0.051
VVQVLMM | 0.0122 ± 0.002
WVMVLMM | < 0.0105
VVMVLAM | 0.0269 ± 0.024
VVMDLMM | 0.00813 ± 0.0026
VVMVLMA | 0.0148 ± 0.0074
VVMWLMM | 0.192 ± 0.27
VVMVLPM | 0.0204 ± 0.01
VVAVLMM | 0.015 ± 0.013
VPMVLMM | < 0.00444
VVMVLMM I103P | < 0.00911
VVMVLQM | 0.00846 ± 0.0027
AVMVLMM | < 0.0144
VVMALMM | 0.0245 ± 0.019
VVMVLMM I103A | < 0.0112
VVMVAMM | 0.0129 ± 0.0065
VQMVLMM | 0.0227 ± 0.024
VVMVLMM I103W | 0.00896 ± 0.0012
VVMQLMM | 0.0435 ± 0.05
VVMPLMM | 0.0112 ± 0.0022
VVMVDMM | 0.0163 ± 0.011
VVMVLMW | 0.0307 ± 0.0023
VVMVLMM I103Q | 0.03119 ± 0.00027

Variants of: B3
Test: as above
Conditions: with Escherichia coli (laboratory strain); antibiotic: carbenicillin; 2× MIC (3.1 µg/mL)
Method: as §1

Variant | fold change of barcode share
V242P | 1.21 ± 0.46
L139D | 1.33 ± 0.032
I122P | 2.03 ± 0.97
L107A | 0.72 ± 0.038
L139Q | 1.41 ± 0.18
L107W | 0.648 ± 0.39
L266W | 0.27 ± 0.06
V242A | 0.989 ± 0.056

Same assay, conditions: with Escherichia coli (laboratory strain); antibiotic: gentamicin; 2× MIC (MIC 0.45 µg/mL)

Variant | fold change of barcode share
V242P | 0.0264 ± 0.023
L139D | < 0.00581
I122P | 0.0314 ± 0.0023
L107A | 0.0062 ± 0.0057
L139Q | 0.016 ± 0.0037
L107W | < 0.00218
L266W | < 0.0023
V242A | 0.0129 ± 0.012
